# Assay results published in paper PMC5515408.
# The other results are listed elsewhere or left out. At the low end of the ranking, values are background and their order means little.
# Target: MAX:MAX (p21) (UniProt P61244-2)
# Assay: protein-binding microarray (anti-MAX antibody)
# Details: PBM: 15 mM Tris-HCl pH 7.5, 100 mM KCl, 0.075% NP40, 7.5 mM beta-mercaptoethanol, 375 ng/ul BSA, 8 ng/ul poly(dA-dT):(dA-dT), 550 ng complex, 60 min, room …; high values mean tight binding; double strand, one strand shown; sequences stand for … in CCGGC…TTAATAGCTAAGATTACTATATCGACG
row,Sequence,binding signal (log2 normalized fluorescence)
1,TGACATTTGGTA,0.0917
2,TGACGCGCGGTG,1.58
3,TGAGAGCTAGTA,-1.06
4,TGACTGCTAGTA,-0.306
5,TGAGGATCGGTA,-0.777
6,TGAGTCGAAGTA,-1.05
7,TGAAAGCACGTA,0.817
8,TGTCACTTGGTA,0.0592
9,TGACCCGTGGTT,2.36
10,TGAGCCAGGGTA,-1.24
11,TGACGACCGGTA,-0.233
12,TGATGCCGCGTA,0.00246
13,GTTCAGCAAAAA,-0.213
14,TGAGAGTACGTA,-0.679
15,TGACTCGAAGTA,-0.426
16,TGAGAGGTGTTA,-0.147
17,TGAGCCTGTGTA,-0.226
18,TGAACGTCTGTA,-0.0331
19,TGAACTCTTGTA,-0.55
20,TGAAGTGGCGTA,-0.442
21,TGACTTTCAGTA,-0.978
22,TGACGCGTGGTT,3.21
23,TGAAATTGCGTA,-0.658

row,Sequence,binding signal (log2 normalized fluorescence)
1,TGAGGTTCAGTA,-0.623
2,TGACCCAGTGTA,-0.0826
3,TGACTTATCGTA,-0.514
4,TGAAATATAGTA,-1.09
5,TGATTCGATGTA,-0.732
6,TGAGGTTTTGTA,-1.2
7,TGACAGGTCGTA,0.0186
8,AGACTCGTCGTA,-0.0778
9,TGAGAAAGGGTA,-1.02
10,TGACTGCCTGTA,0.0499
11,TGATACGGGGGA,1.06
12,TGACACCGCGTA,0.324
13,TGACACATGATA,2.95
14,TGGAACGTGGTA,2.99
15,TGATCCCTTGTA,-0.907
16,TGATCCTCAGTA,-0.95
17,TGAATTCGCGTA,-0.831
18,TGAAGATGCGTA,-0.322
19,TGATGGATCGTA,-0.47
20,TGACTCACTGTA,-0.209
21,TGATGTGACGTA,0.536
22,TGAGCTGTTGTA,-0.74
23,TGTAGCGTGGTA,3.02

row,Sequence,binding signal (log2 normalized fluorescence)
1,GGACACGTGGTA,3.33
2,TGAACCTTCGTA,-0.525
3,TGAAGCTATGTA,-0.869
4,TGATTACAAGTA,-0.837
5,TGACACGGGGTC,3.1
6,TGATATCCGGTA,-1.21
7,TGAAGCCAGGTA,-0.487
8,TGGATCGTGGTA,1.39
9,TGAGTCTCTGTA,-0.778
10,TGAAAGTGGGTA,-0.566
11,AGACACGTTGTA,3.21
12,TGATAAGTTGTA,-0.958
13,TGATAGACTGTA,-0.915
14,TGACCCTCAGTA,-0.595
15,TGATACTATGTA,-0.934
16,CGCCACGTGGTA,3.32
17,TGAGGTCCGGTA,-0.855
18,TGAATCATTGTA,-0.393
19,TGAATAATAGTA,-1.18
20,TGAAATTTAGTA,-1.17
21,TGACACGTGTAT,3.21
22,TCACACGTGGGC,3.27
23,TGAAGAGTAGTA,-0.902

row,Sequence,binding signal (log2 normalized fluorescence)
1,TGATATCTGGTA,-1.04
2,GGACACGGTGTA,2.21
3,TGAAGGACGGTA,-0.466
4,TGATGGCCGGTA,0.391
5,TGAGATCGAGTA,-0.743
6,TGAGGTTATGTA,-0.767
7,TGAGCGCAGGTA,-0.34
8,TGAGATGGGGTA,-0.154
9,TGATTCAAAGTA,-1.13
10,TGAAACCCCGTA,-0.43
11,TGATGCAACGTA,0.0168
12,TGACAACAAGTA,-0.00212
13,TGAGGAAACGTA,-0.713
14,GGACACGGGGTA,3.01
15,TGTCACCTGGTA,2.13
16,TGAGCCTTTGTA,-1.52
17,TGAAGACGTGTA,0.674
18,TGAACGCTGGTA,0.233
19,TGAGGGACGGTA,-0.417
20,TGACACTCCGTA,-0.0103
21,TAATTCGTGGTA,0.431
22,TGAATCGCGGTA,-0.32
23,TGATCAGCTGTA,1.02

row,Sequence,binding signal (log2 normalized fluorescence)
1,TGAATGACCGTA,0.107
2,TGACACGTATCA,1.42
3,TGAGTACTTGTA,-1.11
4,CCAAGGCGGAAC,0.277
5,TGATGAAGAGTA,-0.263
6,TGAGAGTTAGTA,-1.04
7,TGAATCCAGGTA,-0.902
8,TGAGTCGCCGTA,-1.16
9,TGATTCCCGGTA,-0.853
10,TGACCTCATGTA,2.73
11,TGACCGTGGGTA,0.604
12,TGACGACTGGTA,-0.433
13,TGACGTGATGTA,1.63
14,TGATTCCCAGTA,-0.997
15,TGATCCAGTGTA,-0.696
16,TGACATCGCGTA,0.0881
17,TGATTTTCCGTA,-1.03
18,TGAGATGAAGTA,-0.933
19,TGAGTGTAAGTA,-0.22
20,TGAAACCTAGTA,-0.855
21,GGACACGTGGAG,3.2
22,TGAATTACGGTA,-0.663
23,TGATTACCTGTA,-0.642

row,Sequence,binding signal (log2 normalized fluorescence)
1,TGAGACGTTGTA,-0.362
2,TGAGTCTCGGTA,-1.16
3,TGAGTTAGTGTA,-1.05
4,TGAAATATCGTA,-0.654
5,TGAAGATTCGTA,-1.01
6,TGATCGCTAGTA,-0.865
7,TGGCACTTTGTA,-0.541
8,TGATTAGGTGTA,-1.08
9,TGAGATTTTGTA,-1.47
10,TGATGGTAAGTA,0.345
11,TGATTATCGGTA,-1.33
12,TGATTGCTTGTA,-0.593
13,TGATGGTCTGTA,0.348
14,TGATGGGACGTA,0.101
15,TGAGGTCCTGTA,-0.622
16,TGAGAAGCTGTA,-0.843
17,TAAGACGTGGTA,1.75
18,TGAATGCTCGTA,0.339
19,TGAAAGCCAGTA,-0.847
20,TGATATGGGGTA,0.0377
21,TGACGGTTGGTA,-0.29
22,TGAGCTCGAGTA,-0.568
